Laboratory results as given in PubChem BioAssay (Tox21).
“And” between values parts separate entries of the source, which are not always exact repeats. Equal values may be shown once. This list was built around the results that the source calls inconclusive (neither active nor inactive); the mix of calls is not that of the screen. For some of these results: Where the call is inconclusive, the potency comes from a doubtful curve fit. Where a structure was tested more than once in an assay, its records may differ in their call. The source made the active and inactive calls. Unless noted, calls follow the shape of the dose curve; as a rule, active = well fitted curve in the direction sought with a large enough effect in the repeat runs; inconclusive = weak or mixed curves; inactive = no such curve, though single readings can be large; an effect the other way counts as inactive or inconclusive.

Legend:
[1] = target: Estrogen receptor beta (Homo sapiens) (UniProt Q92731); assay: qHTS assay to identify small molecule antagonists of the estrogen receptor beta (ER-beta) signaling pathway (AID 1259378; active = well fitted inhibition curve with a large enough effect in the signal ratio in the repeat runs, not every such curve was filed as active; inconclusive = weak or mixed curves, or effect the other way; inactive = no such curve, though single readings can be large or run the other way; the % refers to the signal ratio; also: potency is read from the fitted curve at half-maximal effect); settings: ER-beta-UAS-bla HEK293T, beta-lactamase FRET ratio, 16 h; activity, negative = inhibition: at 92.4 µM (top of the series) unless noted
Chain of UniProt Q92731 (Q92731 whole entry, looked up): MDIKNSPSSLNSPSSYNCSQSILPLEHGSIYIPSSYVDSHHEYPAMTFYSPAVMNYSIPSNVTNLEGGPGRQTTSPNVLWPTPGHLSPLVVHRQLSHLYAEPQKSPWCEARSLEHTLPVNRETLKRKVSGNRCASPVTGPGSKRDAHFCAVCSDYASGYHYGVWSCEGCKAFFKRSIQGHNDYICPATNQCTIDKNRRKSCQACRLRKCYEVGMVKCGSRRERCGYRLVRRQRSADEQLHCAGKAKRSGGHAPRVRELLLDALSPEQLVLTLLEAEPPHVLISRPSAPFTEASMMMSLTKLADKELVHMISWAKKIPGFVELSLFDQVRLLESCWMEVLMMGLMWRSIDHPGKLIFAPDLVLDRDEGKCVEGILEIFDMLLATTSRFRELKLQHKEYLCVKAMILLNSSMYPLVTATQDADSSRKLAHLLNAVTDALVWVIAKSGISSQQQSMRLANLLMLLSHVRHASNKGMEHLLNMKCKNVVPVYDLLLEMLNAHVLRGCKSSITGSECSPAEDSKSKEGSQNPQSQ
Summary of the method: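 ER-beta-UAS-bla HEK293T (GripTite) cells in 2% charcoal-stripped FBS medium were preincubated 6 hr at 37C, dosed with compound, then stimulated with 1 nM E2 (final) for 16 hr; beta-lactamase reporter read by B/G FRET fluorescence after 2 hr substrate loading.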

[2] = target: Progesterone receptor (Homo sapiens) (UniProt P06401); assay: qHTS assay to identify small molecule antagonists of the progesterone receptor (PR) signaling pathway (AID 1346795; active = well fitted inhibition curve with a large enough effect in the signal ratio in the repeat runs, not every such curve was filed as active; inconclusive = weak or mixed curves; the % refers to the signal ratio; also: potency is read from the fitted curve at half-maximal effect); settings: PR-UAS-bla HEK293T, beta-lactamase FRET ratio, 16 h; activity change, negative = inhibition: at 92.4 µM (top of the series) unless noted
Chain of UniProt P06401 (P06401 whole entry, looked up): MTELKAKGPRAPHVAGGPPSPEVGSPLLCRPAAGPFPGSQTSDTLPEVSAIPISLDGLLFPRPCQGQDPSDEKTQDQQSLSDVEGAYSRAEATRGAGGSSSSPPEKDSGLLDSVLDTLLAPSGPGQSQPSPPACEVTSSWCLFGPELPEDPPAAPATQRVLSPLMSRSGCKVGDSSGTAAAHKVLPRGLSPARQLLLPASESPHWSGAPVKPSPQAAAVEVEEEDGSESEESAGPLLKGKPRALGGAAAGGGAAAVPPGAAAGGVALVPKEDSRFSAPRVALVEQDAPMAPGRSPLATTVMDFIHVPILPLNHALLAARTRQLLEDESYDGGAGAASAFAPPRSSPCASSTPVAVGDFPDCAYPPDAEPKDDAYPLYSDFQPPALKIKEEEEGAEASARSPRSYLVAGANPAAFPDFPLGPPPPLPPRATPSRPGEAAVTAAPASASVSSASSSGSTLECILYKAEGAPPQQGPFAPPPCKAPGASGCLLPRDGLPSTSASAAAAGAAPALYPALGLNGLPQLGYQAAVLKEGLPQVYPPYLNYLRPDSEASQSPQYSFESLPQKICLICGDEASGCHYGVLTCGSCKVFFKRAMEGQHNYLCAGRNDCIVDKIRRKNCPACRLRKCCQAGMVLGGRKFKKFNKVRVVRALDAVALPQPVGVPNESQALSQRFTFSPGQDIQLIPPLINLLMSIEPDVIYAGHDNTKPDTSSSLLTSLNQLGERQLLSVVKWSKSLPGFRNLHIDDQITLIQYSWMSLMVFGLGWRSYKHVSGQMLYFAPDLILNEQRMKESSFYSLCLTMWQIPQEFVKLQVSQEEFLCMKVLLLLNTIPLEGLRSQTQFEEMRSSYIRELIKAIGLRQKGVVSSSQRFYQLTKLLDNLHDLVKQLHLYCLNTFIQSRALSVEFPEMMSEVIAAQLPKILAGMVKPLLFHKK
Summary of the method: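 Inhibition of R5020-induced (1 nM final) beta-lactamase reporter signal in PR-UAS-bla HEK293T cells was scored by FRET fluorescence after overnight (16 hr) compound treatment.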

[3] = qHTS assay to identify small molecule antagonists of the progesterone receptor (PR) signaling pathway - cell viability counter screen (AID 1346798); also: nearly all actives have a fitted effect of over 50% in size; also: potency is read from the fitted curve at half-maximal effect
Summary of the method: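 ATP content as viability readout: CellTiter-Glo luminescence, 30 min room temperature, in PR-UAS-bla HEK293T cells after 16 hr compound/R5020 treatment at 37C and 5% CO2.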

[4] = qHTS assay to identify small molecule agonists of the progesterone receptor (PR) signaling pathway - cell viability counter screen (AID 1346799; calls by dose curve; also: nearly all actives have a fitted effect of over 45% in size; also: potency is read from the fitted curve at half-maximal effect)
Summary of the method: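 Cytotoxicity in PR-bla HEK293T cells: 16 h compound, 37C; CellTiter-Glo added post-FRET read; luminescence after 30 min RT.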

[5] = qHTS assay to identify small molecule antagonists of the TGF-beta/Smad signaling pathway - cell viability counter screen (AID 1346824); also: nearly all actives have a fitted effect of over 50% in size
Summary of the method: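 SBE-bla HEK 293T cells were plated overnight at 37 C, then given compounds in DMSO plus TGF-beta1 (added as 0.25 ng/mL solution) for 5 hr. After the bla read, CellTiter-Glo was added to the same wells and luminescence read after 30 min at room temperature.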

[6] = qHTS assay to identify small molecule agonists of the TGF-beta/Smad signaling pathway (AID 1346859; active = well fitted activation curve with a large enough effect in the signal ratio in the repeat runs, not every such curve was filed as active; inconclusive = weak or mixed curves; the % refers to the signal ratio; also: potency is read from the fitted curve at half-maximal effect); settings: SBE-bla HEK293T, TGF-beta/Smad beta-lactamase reporter, 5 h; activation: at 76.8 µM (top of the series)
Summary of the method: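 Stable Smad binding element-beta-lactamase HEK 293T cells; 5 hr compound exposure at 37 C under 5% CO2; 2 hr room-temperature substrate step; fluorescence excited at 405 nm, collected at 460 nm and 530 nm.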

[7] = qHTS assay to identify small molecule agonists of the TGF-beta/Smad signaling pathway - cell viability counter screen (AID 1346829); also: nearly all actives have a fitted effect of over 45% in size; also: potency is read from the fitted curve at half-maximal effect; as to activity change, negative = cytotoxicity: top concentration of the series differs between compounds
Summary of the method: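 Tox21 qHTS format: SBE-bla HEK 293T cells treated with DMSO-dissolved compounds for 5 hr; CellTiter-Glo luminescence after 30 min at room temperature.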
% is scaled to controls: 0 for no effect and ±100 for the full control effect; tags tell the direction and shape of the fitted curve or compound fluorescence and quenching.

## CCO[Si](CCC#N)(OCC)OCC
[1]
  activity, negative = inhibition: inconclusive: 27.6%
[2]
  Potency: inactive
[3]
  Potency: inactive

## CCCCCC/C=C/C(=O)OC
[1]
  Potency: inactive
[4]
  Potency: inactive

## CCCCCCCCCOC(C)=O
[1]
  Potency: inactive
[2]
  Potency: inactive

## CCCCCCCCS(=O)(=O)Cl
[1]
  Potency: inconclusive: 69.2 µM [activator, single point]
[2]
  Potency: inactive
[4]
  Potency: inactive

## Cc1onc(-c2ccccc2)c1C(=O)Cl
[1]
  Potency: inactive
[3]
  Potency: inactive
[4]
  Potency: inactive
[5]
  Potency: inactive
[6]
  Potency: inactive

## OCC(CO)N[C@H]1C[C@](O)(CO)[C@@H](O)[C@H](O)[C@H]1O
[1]
  Potency: inactive
[3]
  Potency: inactive
[6]
  Potency: inactive

## Nc1ncn([C@H]2C[C@H](O)[C@@H](CO)O2)c(=O)n1
[1]
  activity, negative = inhibition: inconclusive: -19.1% [at 42.5 µM]
[2]
  Potency: inconclusive: 16.8 µM [falling, partial curve]

## CCCCCCCCCCCCCCCCCCCl
[1]
  activity, negative = inhibition: inactive: 21.3% [at 8.39 µM]
[4]
  activity change, negative = cytotoxicity: inactive: -1.64% [at 8.39 µM]

## CC(=O)c1ccccc1N
[1]
  Potency: inactive
[3]
  Potency: inactive
[7]
  Potency: inactive

## CCNC(=O)N1CCN(CCCC(c2ccc(F)cc2)c2ccc(F)cc2)CC1
[1]
  Potency: active: 21.1 µM
[2]
  Potency: inconclusive: 23.7 µM [rising, partial curve, poor fit]
[4]
  Potency: inconclusive: 33.5 µM [cytotoxic, single point]

## CC1CCc2cc(F)cc3c(=O)c(C(=O)O)cn1c23 (configuration not stated)
[1]
  activity, negative = inhibition: inconclusive: 24.6% [at 42.5 µM]
[2]
  Potency: inactive
[4]
  Potency: inactive
[7]
  Potency: inconclusive: 26.8 µM [rising, single point]
[6]
  Potency: inconclusive: 30.1 µM [falling, single point]

## CC(Cl)C(Cl)Cl (configuration not stated)
[1]
  activity, negative = inhibition: inconclusive: -28.3%
[2]
  activity change, negative = inhibition: inconclusive: -46.3%
[3]
  Potency: inconclusive: 30.1 µM [cytotoxic, full curve, poor fit]
[4]
  Potency: inconclusive: 42.6 µM [cytotoxic, partial curve]

## CCCCCC(C)=O
[1]
  activity, negative = inhibition: inconclusive: 40.1%
[2]
  Potency: inconclusive: 68.6 µM [falling, single point]
[3]
  Potency: inconclusive: 61.1 µM [cytotoxic, single point]
[4]
  Potency: inactive and active: 61.1 µM

## OCCOCCOCCO
[1]
  activity, negative = inhibition: inconclusive: 2.49%
[3]
  Potency: inactive
[4]
  Potency: inconclusive: 56.5 µM [cytotoxic, partial curve, poor fit]
[5]
  Potency: inactive
[6]
  Potency: inactive

## CCOC(=O)CC(C)O (configuration not stated)
[1]
  activity, negative = inhibition: inconclusive: -32.3%
[4]
  Potency: inconclusive: 0.243 µM [cytotoxic, single point]

## O=c1[nH]c(=O)n([C@H]2C[C@H](O)[C@@H](CO)O2)cc1C(F)(F)F
[1]
  Potency: inconclusive: 13.3 µM [inhibitor, partial curve]
[2]
  Potency: inactive
[4]
  Potency: inactive
[5]
  Potency: inactive

## CCOC(=O)CC(=O)c1ccccc1
[1]
  Potency: inactive
[2]
  Potency: inconclusive: 0.969 µM [falling, single point]
[3]
  Potency: inconclusive: 1.37 µM [rising, single point]

## CCCCOC(=O)c1ccccc1C(=O)OCC(CC)CCCC (configuration not stated)
[1]
  activity, negative = inhibition: inconclusive: -41.1%
[2]
  Potency: active: 48.6 µM

## C=CCOc1ccccc1OCC(O)CNC(C)C (configuration not stated)
[1]
  Potency: inactive
[4]
  Potency: inactive

## CC(C)(C)NCCO
[1]
  Potency: inactive
[2]
  Potency: inconclusive: 68.6 µM [rising, partial curve, poor fit]
[3]
  Potency: active: 30.6 µM
[4]
  Potency: active: 48.6 µM

## O=[N+]([O-])c1ccc(Oc2ccc([N+](=O)[O-])cc2)cc1
[1]
  Potency: inactive
[2]
  Potency: active: 3.94 µM
[3]
  Potency: inconclusive: 70.1 µM [rising, partial curve, poor fit]
[4]
  Potency: inconclusive: 14 µM [rising, partial curve, poor fit]

## COc1ccc2cc(CCC(C)=O)ccc2c1
[1]
  Potency: inactive
[2]
  Potency: active: 13.3 µM
[4]
  Potency: inconclusive: 26.6 µM [rising, partial curve]
[6]
  Potency: inactive

## O=C(CCCl)NCc1ccccc1
[1]
  Potency: inactive
[2]
  Potency: inactive
[5]
  Potency: inactive

## O=S(=O)(c1ccccc1)c1ccc(Cl)cc1
[1]
  activity, negative = inhibition: inconclusive: -28%
[2]
  Potency: active: 24.3 µM
[4]
  Potency: inconclusive: 77 µM [rising, single point]

## CNCCC(Oc1ccccc1OC)c1ccccc1 (configuration not stated)
[1]
  Potency: inactive
[3]
  Potency: inactive
[4]
  Potency: inconclusive: 23.7 µM [cytotoxic, single point]

## CCC(C)OC(=O)N1CCCCC1CCO (configuration not stated)
[1]
  activity, negative = inhibition: inconclusive: -2.75%
[4]
  Potency: inactive
